# Source: PubChem BioAssay (NCATS)
# Several values for one entry are separate records, joined by “and”; a condition that tells them apart may be missing. Equal values may be shown once. The inconclusive results got no clear call from the source; some entries with a clear call stand among them for comparison. A call without a number means that no potency is given here. For some assays here: Where the call is inconclusive, the potency comes from a doubtful curve fit. Activity calls are given as the source filed them. Unless noted, calls follow the shape of the dose curve; as a rule, active = well fitted curve in the direction sought with a large enough effect; inconclusive = small, poorly fitted or top-dose-only effect, or another doubt; inactive = no such curve, though single readings can be large; an effect the other way counts as inactive or inconclusive.
# Experiments:
# [1] = qHTS Assay for Identifying Gametocytocidal Compounds (AID 743244);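 also: actives lower the fluorescent signal which means gametocytes are killed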; settings: P. falciparum 3D7 stage III-V gametocytes, alamarBlue, 72 h; max response: active compounds read low
# Summary of the method: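 Stage III–V gametocytes of P. falciparum 3D7 were seeded at 20,000 cells/well onto pre-dispensed compounds. After 72 h, 37 °C, 5% CO2, alamarBlue was added for another 24 h.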
# [2] = qHTS of pediatric cancer cell lines to identify multiple opportunities for drug repurposing: Primary screen for SJ-GBM2 cells (AID 1347091)
# Summary of the method: (§1)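 Eight- or eleven-point concentration series, 48 h treatment at 37 degrees C in growth media; readout CellTiter-Glo luminescence. Potency and efficacy were taken from the concentration-response curves.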
# [3] = qHTS of pediatric cancer cell lines to identify multiple opportunities for drug repurposing: Primary screen for BT-37 cells (AID 1347094)
# Summary of the method: (§2)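 Primary screen of approved and investigational compounds on cells in growth media at 37 degrees C, 5% CO2. MIPE set at 11-point and NPC set at 8-point dilutions; viability scored by ATP-based luminescence at 48 hours.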
# [4] = qHTS of pediatric cancer cell lines to identify multiple opportunities for drug repurposing: Primary screen for SK-N-SH cells (AID 1347098);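 also: DMSO served as neutral control and bortezomib at 2.3 µM as positive control; nearly all actives have a fitted effect of over 65% in size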
# Summary of the method: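 Cells (500-1,000/well) rested 5 h, then received compounds for 48 h; metabolically active cells were measured by CellTiter-Glo luminescence. Final concentrations spanned up to 46 µM (MIPE, 11-point) or 0.59 nM-46 µM (NPC, 8-point) in primary screens, 11-point in follow-ups.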
# [5] = qHTS of pediatric cancer cell lines to identify multiple opportunities for drug repurposing: Primary screen for NB1643 cells (AID 1347099); settings: NB1643 neuroblastoma viability, CellTiter-Glo luminescence, 48 h; activity change, negative = cytotoxic: at 46 µM (top of the series); also: nearly all actives have a fitted effect of over 50% in size
# Summary of the method: as §2
# [6] = qHTS of pediatric cancer cell lines to identify multiple opportunities for drug repurposing: Primary screen for Rh41 cells (AID 1347108);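 also: luminescence drop marks cytotoxic hits; nearly all actives have a fitted effect of over 70% in size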
# Summary of the method: as §2
# [7] = Primary qHTS for inhibitors of nuclear receptor binding SET domain protein 2 (NSD2) in an RCH-ACV wild type WT cells (2C) (AID 1645877); settings: activity change, negative = cell killing: at 44.9 µM (top of the series) unless noted; also: nearly all actives have a fitted effect of over 70% in size; also: potency is read from the fitted curve at half-maximal effect
# [8] = tested on: CAOV3; test: Primary qHTS to identify gynecologic anti-cancer compounds using libraries of approved drugs and bioactive compounds (AID 1345084); settings: Gynecologic cancer cell panel viability, ATPlite luminescence, 48 h; series mostly up to 57.5 µM; also: nearly all actives have a fitted effect of over 55% in size; also: potency is read from the fitted curve at half-maximal effect
# Summary of the method: (§3)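 Cytotoxicity screen measuring ATP content by luciferase luminescence. Each compound is applied at five concentrations for 48 h at 37 C with 5% CO2.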
# [9] = tested on: SKOV3; test: as above; settings: Gynecologic cancer cell panel viability, ATPlite luminescence, 48 h; series mostly up to 57.5 µM
# Summary of the method: as §3
# [10] = tested on: Tov-21-G; test: as above; settings: Gynecologic cancer cell panel viability, ATPlite luminescence, 48 h; series mostly up to 57.5 µM
# Summary of the method: as §3
# [11] = tested on: Zika virus NS2B-NS3 protease (unlinked complex); test: Primary screen GU Rhodamine qHTS for Zika virus inhibitors: Unlinked NS2B-NS3 protease assay (AID 1347159); settings: Recombinant ZIKV NS2B-NS3 protease, Rhodamine110 substrate fluorescence; activity change, negative = inhibition: at 107 µM (top of the series); also: nearly all actives have a fitted effect of over 60% in size; also: potency is read from the fitted curve at half-maximal effect
# Summary of the method: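 Noncovalent NS2B hydrophilic domain–NS3 protease domain complex (25 nM) preincubated 15 min at room temperature with compounds (up to 114 microM) in 10 mM Tris-HCl pH 8.0, 0.01% Tween 20; 1.5 microM Rhodamine110 substrate added, fluorescence change over 15 min fitted to Hill equation.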
# [12] = tested on: Zika virus NS2B-NS3 protease (linked construct); test: Primary screen NINDS Rhodamine qHTS for Zika virus inhibitors (AID 1347160); also: potency is read from the fitted curve at half-maximal effect; nearly all actives have a fitted effect of over 55% in size
# Summary of the method: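 Purified linked NS2B-NS3 protease (NS2B hydrophilic domain joined to NS3 protease by flexible linker), 25 nM in 10 mM Tris-HCl pH 8.0, 0.01% Tween 20. Compounds titrated, 15 min preincubation at room temperature; 1.5 microM Rhodamine110 substrate, FITC fluorescence change over 15 min.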
# [13] = P-glycoprotein substrates identified in KB-8-5-11 adenocarcinoma cell line, qHTS therapeutic library screen (AID 1346987); settings: activity change, negative = cytotoxicity: at 44.5 µM (top of the series); also: nearly all actives have a fitted effect of over 65% in size
# Summary of the method: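 Steps: plate 500 KB-8-5-11 cells/well in DMEM + 10% FCS (colchicine removed); pin compounds in dose-response; incubate 72 h, 37 degree C, 5% CO2; add CellTiter-Glo, 5 min; read luminescence.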
# [14] = qHTS of pediatric cancer cell lines to identify multiple opportunities for drug repurposing: Primary screen for DAOY cells (AID 1347090); also: nearly all actives have a fitted effect of over 55% in size
# Summary of the method: as §1
# [15] = qHTS of pediatric cancer cell lines to identify multiple opportunities for drug repurposing: Primary screen for U-2 OS cells (AID 1347096); also: nearly all actives have a fitted effect of over 50% in size
# Summary of the method: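 Cells (500-1,000/well) in growth media were settled 5 h at 37 degrees C, then given compounds for 48 h. Viability was read as CellTiter-Glo luminescence. Primary runs used MIPE at 11 points (0.78 nM-46 µM) and NPC at 8 points (0.59 nM-46 µM); follow-ups used 11 points.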
# [16] = target: Protein phosphatase 1D (Homo sapiens) (UniProt O15297); test: RapidFire Mass Spectrometry qHTS Assay for Modulators of WT P53-Induced Phosphatase 1 (WIP1) (AID 1347424);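 also: amount of dephosphorylated VEPPL-S-QETFS peptide product formed by WIP1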
# Chain of UniProt O15297 (O15297 whole entry, looked up): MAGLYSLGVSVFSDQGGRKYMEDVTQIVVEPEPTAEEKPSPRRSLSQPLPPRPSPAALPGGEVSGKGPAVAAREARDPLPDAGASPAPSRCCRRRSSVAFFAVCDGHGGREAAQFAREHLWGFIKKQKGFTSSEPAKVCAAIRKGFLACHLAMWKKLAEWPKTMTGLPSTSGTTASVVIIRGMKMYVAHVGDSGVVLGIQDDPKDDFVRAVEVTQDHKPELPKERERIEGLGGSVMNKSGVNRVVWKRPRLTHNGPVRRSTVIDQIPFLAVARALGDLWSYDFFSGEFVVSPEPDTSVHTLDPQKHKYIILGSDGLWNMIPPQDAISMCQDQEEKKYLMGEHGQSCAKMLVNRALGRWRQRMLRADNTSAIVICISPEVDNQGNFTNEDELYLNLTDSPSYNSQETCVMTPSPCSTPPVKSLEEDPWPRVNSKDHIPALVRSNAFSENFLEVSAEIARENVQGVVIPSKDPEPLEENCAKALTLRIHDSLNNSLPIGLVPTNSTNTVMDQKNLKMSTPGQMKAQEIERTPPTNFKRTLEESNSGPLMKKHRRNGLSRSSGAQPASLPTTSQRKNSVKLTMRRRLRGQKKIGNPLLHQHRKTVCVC
# Summary of the method: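 WIP1 (10 nM final) was preincubated 1 h at room temperature with compounds in Tris-HCl pH 7.5, 30 mM MgCl2, TCEP, EGTA, BSA; 2 uM VEPPL-pS-QETFS phosphopeptide was added for 5 min, quenched with formic acid, and dephosphorylated product quantified by RapidFire MS.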
# [17] = Primary qHTS for small molecule stabilizers of the endoplasmic reticulum resident proteome: Secreted ER Calcium Modulated Protein (SERCaMP) assay (AID 1508630); settings: SH-SY5Y GLuc-SERCaMP (Gaussia luciferase released on ER calcium loss) secretion, thapsigargin, luminescence; activity change, negative = inhibition: at 38.4 µM (top of the series) unless noted; also: potency is read from the fitted curve at half-maximal effect
# Summary of the method: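 GLuc-SERCaMP-expressing SH-SY5Y cells, pretreated 16 h with compound, are challenged with thapsigargin to empty ER calcium stores; after 4 h, coelenterazine is added directly to the medium and luminescence is imaged.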
# [18] = target: Phospholipid hydroperoxide glutathione peroxidase GPX4 (Homo sapiens) (UniProt P36969); test: Primary qHTS Assay for Inhibitors of Recombinant Selenoprotein Glutathione Peroxidase 4 (GPX4) (AID 1845192); settings: activity change, negative = inhibition: at 50 µM (top of the series) unless noted; also: nearly all actives have a fitted effect of over 65% in size
# Chain of UniProt P36969 (P36969 whole entry, looked up): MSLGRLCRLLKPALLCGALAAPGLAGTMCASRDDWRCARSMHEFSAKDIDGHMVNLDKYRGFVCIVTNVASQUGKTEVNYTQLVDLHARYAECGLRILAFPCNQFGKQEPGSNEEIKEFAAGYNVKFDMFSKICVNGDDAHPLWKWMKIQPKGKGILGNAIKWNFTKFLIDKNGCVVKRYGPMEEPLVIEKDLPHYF
# Summary of the method: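 GR-coupled readout: 100 nM GR, 1 mM GSH, 0.5 mM NADPH; NADPH fluorescence (ex 340/em 450 nm) read at t=0 and after 15 min RT. GPX4 200 nM, preincubated 30 min with compound; substrate 0.5 mM CHP.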
# [19] = tested on: AA1029; test: qHTS profiling for inhibitors of Plasmodium falciparum proliferation (AID 504749); also: nearly all actives have a fitted effect of over 60% in size; settings: P. falciparum in erythrocytes, SYBR Green DNA, 72 h; series mostly up to 28.7 µM
# Summary of the method: (§4)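 Parasite proliferation within erythrocytes, 72 h exposure. Endpoint: SYBR Green I fluorescence after overnight lysis at room temperature. Controls: 0.29 uM artemisinin, DMSO.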
# [20] = tested on: CP297; test: as above; settings: P. falciparum in erythrocytes, SYBR Green DNA, 72 h; activity, negative = inhibition: at 28.7 µM (top of the series)
# Summary of the method: as §4
# [21] = tested on: DIV17; test: as above; settings: P. falciparum in erythrocytes, SYBR Green DNA, 72 h; activity, negative = inhibition: at 28.7 µM (top of the series)
# Summary of the method: as §4
# [22] = tested on: PC15; test: as above; settings: P. falciparum in erythrocytes, SYBR Green DNA, 72 h; series mostly up to 28.7 µM
# Summary of the method: as §4
# [23] = tested on: W2; test: as above; settings: P. falciparum in erythrocytes, SYBR Green DNA, 72 h; activity, negative = inhibition: at 28.7 µM (top of the series)
# Summary of the method: as §4
# [24] = target: Glucocorticoid receptor (Homo sapiens) (UniProt P04150); test: GR-GFP Redistribution (AID 450;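 active = compounds whose dose series gives a full or clear partial fitted curve of increased nuclear translocation; inconclusive = weak partial curve or effect only at the top dose; inactive = no dose-dependent translocation response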; also: potency is read from the fitted curve at half-maximal effect); settings: U2OS GR-GFP nuclear translocation, laser cytometry, 2 h
# Chain of UniProt P04150 (P04150 whole entry, looked up): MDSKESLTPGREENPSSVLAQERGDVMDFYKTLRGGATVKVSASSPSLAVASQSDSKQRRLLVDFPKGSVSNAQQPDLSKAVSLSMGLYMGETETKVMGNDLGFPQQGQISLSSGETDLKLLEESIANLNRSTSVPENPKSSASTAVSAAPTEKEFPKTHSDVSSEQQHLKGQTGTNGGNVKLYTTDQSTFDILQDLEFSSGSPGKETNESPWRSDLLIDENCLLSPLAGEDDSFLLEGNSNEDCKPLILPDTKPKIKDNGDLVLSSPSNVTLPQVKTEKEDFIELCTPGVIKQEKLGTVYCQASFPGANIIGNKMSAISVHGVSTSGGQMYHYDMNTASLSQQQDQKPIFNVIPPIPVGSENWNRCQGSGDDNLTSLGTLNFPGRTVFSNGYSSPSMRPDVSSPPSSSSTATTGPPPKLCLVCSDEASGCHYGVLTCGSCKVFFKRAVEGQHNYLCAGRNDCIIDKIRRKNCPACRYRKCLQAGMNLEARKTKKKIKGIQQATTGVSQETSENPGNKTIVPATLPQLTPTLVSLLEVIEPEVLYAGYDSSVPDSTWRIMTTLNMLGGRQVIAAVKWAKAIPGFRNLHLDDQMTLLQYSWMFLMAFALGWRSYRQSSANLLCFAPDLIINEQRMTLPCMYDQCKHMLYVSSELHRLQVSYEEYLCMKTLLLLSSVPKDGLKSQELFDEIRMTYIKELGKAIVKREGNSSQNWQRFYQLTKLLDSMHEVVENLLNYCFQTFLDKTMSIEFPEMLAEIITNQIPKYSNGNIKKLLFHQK
# [25] = qHTS Assay for Identification of Small Molecule Agonists for Hypoxia Response Element Signaling Pathway (AID 914; active = well fitted activation curve with a large enough effect in the signal ratio, with a control signal flat, not every such curve was filed as active; inconclusive = small, poorly fitted or top-dose-only effect, or effect the other way, or a change in a side signal; the % refers to the signal ratio; also: potency is read from the fitted curve at half-maximal effect); settings: ME-180 (cervical carcinoma) HRE-bla reporter, beta-lactamase ratio, CoCl2, 17 h; activation: active compounds read high
# Summary of the method: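 qHTS titration; ME-180 HRE-bla cells; EC50 CoCl2 co-treatment, 17 h at 37 degrees Celsius; CCF4 dye, ex 405nm, em 460nm and 530nm; %Activity from ratio; AC50.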
# [26] = qHTS of pediatric cancer cell lines to identify multiple opportunities for drug repurposing: Primary screen for SK-N-MC cells (AID 1347093); settings: SK-N-MC viability, CellTiter-Glo luminescence, 48 h; activity change, negative = cytotoxic: at 46 µM (top of the series)
# Summary of the method: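 Metabolically active cells were quantified by ATP-dependent luminescence (CellTiter-Glo, 15 min at room temperature) following 48 h treatment. Cells had been plated at 500-1,000 per well and settled for 5 h beforehand.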
# [27] = target: Cytochrome P450 3A4 (Homo sapiens) (UniProt P08684); test: Cytochrome P450 family 3 subfamily A member 4 (CYP3A4) small molecule antagonists: luciferase qHTS assay (AID 1645841; active = well fitted curve in the direction sought with a large enough effect in the repeat runs; inconclusive = weak or mixed curves; inactive = no such curve, though single readings can be large; an effect the other way counts as inactive or inconclusive; also: potency is read from the fitted curve at half-maximal effect; nearly all actives have a fitted effect of over 45% in size)
# Chain of UniProt P08684 (P08684 whole entry, looked up): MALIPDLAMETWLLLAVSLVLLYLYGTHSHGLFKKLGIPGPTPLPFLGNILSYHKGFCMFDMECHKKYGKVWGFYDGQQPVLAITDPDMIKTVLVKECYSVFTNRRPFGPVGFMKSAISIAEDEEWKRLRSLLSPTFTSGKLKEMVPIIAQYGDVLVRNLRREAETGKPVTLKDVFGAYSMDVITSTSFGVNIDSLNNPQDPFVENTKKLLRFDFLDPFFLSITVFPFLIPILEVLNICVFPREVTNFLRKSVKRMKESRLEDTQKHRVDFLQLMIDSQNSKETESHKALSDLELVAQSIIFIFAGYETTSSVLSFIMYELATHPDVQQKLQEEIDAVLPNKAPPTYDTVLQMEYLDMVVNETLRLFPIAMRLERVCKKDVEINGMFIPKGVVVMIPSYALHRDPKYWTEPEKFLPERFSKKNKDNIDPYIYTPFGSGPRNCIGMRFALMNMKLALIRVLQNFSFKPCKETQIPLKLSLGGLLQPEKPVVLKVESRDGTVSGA
# Summary of the method: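 P450-Glo CYP3A4 enzyme with proluciferin substrate was preincubated with DMSO-dissolved compounds for 10 min at room temperature. NADPH regeneration solution started a 1 h reaction. Detection reagent stopped it, and luminescence was read after 20 min.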
# [28] = target: Cytochrome P450 2C9 (Homo sapiens) (UniProt P11712); test: Cytochrome P450 family 2 subfamily C member 9 (CYP2C9) small molecule antagonists: luciferase biochemical (cell-free) qHTS assay (AID 1645842; active = well fitted curve in the direction sought with a large enough effect in the repeat runs; inconclusive = weak or mixed curves; inactive = no such curve, though single readings can be large; an effect the other way counts as inactive or inconclusive; also: nearly all actives have a fitted effect of over 55% in size; also: potency is read from the fitted curve at half-maximal effect)
# Chain of UniProt P11712 (P11712 whole entry, looked up): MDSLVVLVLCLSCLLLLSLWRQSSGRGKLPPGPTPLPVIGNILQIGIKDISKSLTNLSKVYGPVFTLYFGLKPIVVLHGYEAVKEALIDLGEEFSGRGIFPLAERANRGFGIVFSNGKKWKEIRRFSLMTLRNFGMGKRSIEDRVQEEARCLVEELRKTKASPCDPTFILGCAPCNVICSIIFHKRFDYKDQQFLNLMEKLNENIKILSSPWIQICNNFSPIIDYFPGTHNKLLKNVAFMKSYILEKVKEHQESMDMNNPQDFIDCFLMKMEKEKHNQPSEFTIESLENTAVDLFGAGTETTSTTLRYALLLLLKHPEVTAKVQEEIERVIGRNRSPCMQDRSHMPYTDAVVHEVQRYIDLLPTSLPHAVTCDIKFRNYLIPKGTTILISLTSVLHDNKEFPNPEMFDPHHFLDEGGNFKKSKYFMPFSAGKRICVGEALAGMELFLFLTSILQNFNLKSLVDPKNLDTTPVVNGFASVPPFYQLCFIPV
# Summary of the method: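 Luminescence, after 20 min with luciferin detection reagent, reflected CYP2C9 turnover during a 1 h NADPH-driven reaction at 37C. Enzyme-substrate mix contained 0.4% bovine serum albumin and was preincubated with compound 10 min at room temperature.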
# [29] = Primary qHTS for inhibitors of nuclear receptor binding SET domain protein 2 (NSD2) in an isogenic RCH-ACV NSD2 p.E1099K mutant (9B) (AID 1645876); settings: activity change, negative = viability loss: at 44.9 µM (top of the series) unless noted; also: potency is read from the fitted curve at half-maximal effect; nearly all actives have a fitted effect of over 70% in size
# [30] = tested on: PA-1; test: Primary qHTS to identify gynecologic anti-cancer compounds using libraries of approved drugs and bioactive compounds (AID 1345084); settings: Gynecologic cancer cell panel viability, ATPlite luminescence, 48 h; series mostly up to 57.5 µM; also: nearly all actives have a fitted effect of over 55% in size; also: potency is read from the fitted curve at half-maximal effect
# Summary of the method: as §3
# Tags tell the direction and shape of the fitted curve or compound fluorescence and quenching.
smiles,measurement,setting,value
Cc1nc([N+](=O)[O-])cn1-c1ccc([N+](=O)[O-])cc1,max response,[1],inactive: 9.29%
same,Potency,[2],inactive
same,Potency,[3],inactive
same,Potency,[4],inactive
same,Potency,[5],inactive
same,Potency,[6],inactive
same,Potency,[7],inactive
same,Potency,[8],"inconclusive: 0.708 µM [rising, full curve]"
same,Potency,[9],"inconclusive: 1.58 µM [rising, partial curve, poor fit]"
same,Potency,[10],inactive
COC(=O)C1=COC(OC2OC(CO)C(O)C(O)C2O)C2C1CC(OC(=O)C(O)CC(=O)O)C2C (configuration not stated),Potency,[11],"inconclusive: 35.5 µM [inhibitor, single point]"
same,Potency,[12],"inconclusive: 10 µM [inhibitor, single point]"
same,Potency,[8],inactive
same,Potency,[9],"inconclusive: 1.26 µM [rising, partial curve, poor fit]"
CCC(O)(C(=O)OCc1ccccc1NC(=O)CCC(=O)O)C(C)O (configuration not stated),Potency,[13],inactive
same,Potency,[11],inactive
same,Potency,[7],inactive
same,Potency,[8],"inconclusive: 28.2 µM [cytotoxic, single point]"
same,Potency,[9],"inconclusive: 28.2 µM [rising, single point]"
CCOC(=O)[C@H](CCc1ccccc1)N[C@@H](C)C(=O)N1C(=O)N(C)C[C@H]1C(=O)O,Potency,[14],inactive
same,Potency,[15],inactive
same,Potency,[11],"inconclusive: 89.1 µM [inhibitor, single point]"
same,Potency,[16],inactive
same,Potency,[17],"inconclusive: 112 µM [inhibitor, full curve]"
same,Potency,[18],inactive
same,Potency,[8],inactive
same,Potency,[9],"inconclusive: 35.5 µM [rising, single point]"
same,Potency,[19],inactive
same,Potency,[20],inactive
same,Potency,[21],inactive
same,Potency,[22],inactive
same,Potency,[23],inactive
CC1(C)O[C@@H]2C[C@H]3[C@@H]4C[C@H](F)C5=CC(=O)C=C[C@]5(C)[C@@]4(F)[C@@H](O)C[C@]3(C)[C@]2(C(=O)CO)O1,Potency,[24],active: 0.000728 µM
same,Potency,[25],inconclusive: 0.0013 µM [inhibitor]
same,Potency,[26],inactive
same,Potency,[17],inactive
same,Potency,[27],"inconclusive: 19.5 µM [falling, partial curve, poor fit]"
same,Potency,[28],inactive
same,Potency,[29],"inconclusive: 15 nM [inhibitor, partial curve, poor fit] and inconclusive: 16.6 nM [inhibitor, full curve, poor fit]"
same,Potency,[8],"inconclusive: 35.5 µM [cytotoxic, partial curve, poor fit]"
same,Potency,[9],inactive
COc1ccc(CC2NCCc3c2[nH]c2ccc(C)cc32)cc1OC (configuration not stated),Potency,[13],inactive
same,Potency,[28],active: 10.7 µM
same,Potency,[29],"inconclusive: 16.3 µM [inhibitor, single point]"
same,Potency,[7],"inconclusive: 20.5 µM [inhibitor, partial curve]"
same,Potency,[8],"inconclusive: 39.8 µM [cytotoxic, partial curve, poor fit]"
same,Potency,[30],inactive
